# Measurements reported in the supplement of paper PMC10338343.
# ± gives the standard deviation. This is a selection; strong and weak results do not stand in their true shares.
# Test system: MIWI (PIWIL1) piRISC loaded with L1MC piRNA (30 nt)
# Assay: pre-steady-state target cleavage rate (min^-1); MIWI and MILI are mouse PIWI proteins and EfPiwi is from a freshwater sponge; tags in brackets are library labels; higher = faster piRNA-guided slicing of the target
# Conditions: guide: L1MC piRNA 5'p-UAACUAAAUACUAUGCAAGCUGUAGGUCCU
# Method in brief: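 A transcribed, DNA-blocked target RNA library […] was incubated at 33 °C for 0–8 or 0–960 min with 1 nM active affinity-purified piRISC carrying one synthetic guide, in HEPES–potassium acetate buffer with or without 500 nM GTSF1 partner protein. Uncleaved targets were then sequenced and normalised to depth and to weakly complementary targets. Data from three trials were pooled, with k3 capped at 0.0001 min^-1, and a burst-and-steady-state fit yielded the pre-steady-state cleavage rate.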
# [1] = auxiliary factor: 500 nM mouse GTSF1
# [2] = auxiliary factor: none (no GTSF1)
# 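Also: 1 nM active piRISC with 0.1 nM target library at 33 °C single turnover.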
Sequence,pre-steady-state target cleavage rate [1],pre-steady-state target cleavage rate [2]
UCCUGGUACAGCUUGGAUAGUAAUUAGUUA,0.524 ± 0.13,0.0127 ± 0.0029
UCGACCUACACCUUGCAUUGUAUUUAGUUA,0.688 ± 0.024,0.0243 ± 0.0058
UCCUGGUACAGCAUGCAUAGUUUUUAGUUA,0.176 ± 0.04,0.0217 ± 0.0066
UCCUGCAACAGCUUGCAUAGUUUUUAGUUA,0.44 ± 0.025,0.0443 ± 0.01
UCCUGGAUGUGCUUGCAUAGUAAUUACUUA,0.0268 ± 0.008,0.00786 ± 0.0028
UCGACCUACAGCUUGCAUAGUAUUUAUUUA,0.472 ± 0.027,0.0752 ± 0.015
UCCACCUACAGCAUGCAUAGUAAUUAGUUA,0.597 ± 0.05,0.00874 ± 0.0024
UCCUGGAUGAGCUUGCAUAGUAUUAAGAUA,0.0969 ± 0.027,0.00447 ± 0.0029
AGGACCUAGAGCUUGCAUAGUUUUUAGUUA,0.343 ± 0.023,0.0238 ± 0.0061
AGGACCUACAGCUUGCAUACUAUUUUGUUA,0.22 ± 0.021,0.0206 ± 0.0035
UCCUGGAACAGCAUUGCAUAGUAUUUAGUUA,0.854 ± 0.05,0.0321 ± 0.0066
UCCUGGAUCAGCUUGCAUAGUAAUUAGAAA,0.237 ± 0.05,0.00401 ± 0.0033
AGGACCUACAGCUUAGCAUAGUAUUUAGUUA,1.37 ± 0.052,0.0387 ± 0.011
UCCUCCUACAGCUUGCAUAGAUUUUAGUUA,0.156 ± 0.022,0.00498 ± 0.0021
UGGACCAACAGCUUGCAUAGUAUUUUCAAA,0.279 ± 0.041,0.00581 ± 0.0024
UCCUGGAUCAGCUGUGCAUAGUAUUUAGUUA,0.847 ± 0.046,0.0209 ± 0.0046
UCGACCUACACGUUGCAUAGUAUUUAGUAA,0.774 ± 0.045,0.0103 ± 0.003
AGGACCUACAGCUUGCAUAGUAUCUAGUUA,0.831 ± 0.071,0.0662 ± 0.013
UCCUCCUACUGCUUGCAUAGUAUUUACAAA,0.128 ± 0.016,0.00353 ± 0.0017
UCCUGGUACACCUUGCAAAGUAUUUAGUUA,0.183 ± 0.035,0.00933 ± 0.0023
UCCUGCUACAGCUUGCAUAGUUAAUAGUUA,0.103 ± 0.022,0.0103 ± 0.0022
UCCUGGAAGAGCUUGCAUAGUUUUUAGUUA,0.203 ± 0.018,0.0241 ± 0.0075
UCCUGGAUCUGCUUGGAUAGUAUUUAGUUA,0.533 ± 0.033,0.0259 ± 0.0063
UCGACCUACAGCUAGCUUAGUAUUUAGUUA,1.04 ± 0.062,0.00927 ± 0.0022
UCGACCUUGUGCUUGCAUAGUAUUUAGUUA,0.871 ± 0.038,0.0513 ± 0.0098
UCCUGCUACACCUUGCAUUGUAUUUAGUUA,0.492 ± 0.031,0.0232 ± 0.0039
UCCUGCUACAGCUUGCAAAGUAUAUAGUUA,0.311 ± 0.042,0.0109 ± 0.0021
UGGACCUACAGCUUGCAUAGAAUUUUGUUA,0.46 ± 0.075,0.0161 ± 0.0058

Sequence,pre-steady-state target cleavage rate [1],pre-steady-state target cleavage rate [2]
UCCUGGAUCAGCUUGCAUUGUAUUUAGUUA,0.625 ± 0.038,0.0257 ± 0.0063
UCGACCUACAGCUUGCAUAGCAUUUAGUUA,0.467 ± 0.022,0.0289 ± 0.0056
UCCUGGAUCAGCUUGCAAUAGUAUUUAGUUA,0.00794 ± 0.0031,0.00334 ± 0.0026
UCCUGGAUGAGCUUGCAUACUAUUUUGUUA,0.0444 ± 0.01,0.0102 ± 0.0032
UGGUCCUACAGCUUGCAUAGUAUUUACUUA,0.339 ± 0.033,0.0376 ± 0.0072
UCCUCCUACAGCUUGCAUAGUAUUUUCUUA,0.299 ± 0.039,0.0157 ± 0.0056
UCCUGCUACAGCUUGCAUAGUAUUUAGUGUA,0.375 ± 0.045,0.0176 ± 0.0042
UGGACCUACACCUUGCAUAGUAUUUUGUUA,0.557 ± 0.068,0.0292 ± 0.0053
UCCUGCUACAGCUUGCAUAGUAUUUAGUAUA,0.522 ± 0.033,0.0059 ± 0.0033
UCCAGCUAGAGCUUGCAUAGUAUUUAGUUA,0.288 ± 0.033,0.0158 ± 0.0021
UCCUGCUACUGGUUGCAUAGUAUUUAGUUA,0.983 ± 0.048,0.0243 ± 0.0045
UCCUGCUACAGCUUGGAUAGUAUUAAGUUA,0.453 ± 0.051,0.0133 ± 0.0025
UGGACCUACAGCAUGCAUAGUAUUUACUUA,0.397 ± 0.042,0.023 ± 0.0053
UCCUGCUACUGCUUGGAUAGUAUUUAGUUA,0.969 ± 0.077,0.0353 ± 0.0055
UCCUGGAACAGCUUGCAUAGUACUUAGUUA,0.835 ± 0.057,0.0535 ± 0.01
UCCUGGAUCAGCAAGCAUAGUAUUUAGUUA,0.342 ± 0.047,0.0035 ± 0.0023
UCCACGUACAGCUUGCAUAGUAUUUACAAA,0.254 ± 0.032,0.00339 ± 0.0019
UCGACCUACAGGUUGCAUAGUAUUUAGAAA,0.411 ± 0.042,0.00412 ± 0.0021
AGGACCUACAGCUUGCAUAGUAUUUAGUCA,0.838 ± 0.055,0.0761 ± 0.017
UCCUGCUACGAGCUUGCAUAGUAUUUAGUUA,0.717 ± 0.073,0.0315 ± 0.0066
UCCACCUACAGCUUGGAUAGUAAUUAGUUA,0.674 ± 0.034,0.015 ± 0.0028
UGGACCUACAGCUUGCAUAGUAAUAAGUUA,0.367 ± 0.047,0.00394 ± 0.0024
UCCUGGAACAGCUUGCAUAGUAUUUCGUUA,0.215 ± 0.029,0.0162 ± 0.0036
UCCUGGAACAGCUAGCAUAGUAUUAAGUUA,0.599 ± 0.054,0.00625 ± 0.0028
AGGACCUACACCUUGCAUAGUAAUUAGUUA,0.861 ± 0.074,0.0261 ± 0.0063
UCCUGGAACAGCUUGCAUAGUAUUUAGUGA,0.632 ± 0.043,0.0403 ± 0.0086
UCGACCUACAGCUUGCAUACUAUUUUGUUA,0.218 ± 0.02,0.0176 ± 0.0038
